Experimental data: patent US20250288643A1 (FBD BIOLOGICS, published 2025)

Assays:
CD47-ECD-His [1] = target: T1, CD47-ECD-His (Homo sapiens (Human), UniProt Q08722 fragment); test: Octet, CD47-ECD-His loaded, SET1
human CD47 on cells [2] = target: T2, human CD47 on cells (human, UniProt Q08722); test: flow cytometry, human RBC (015), anti-hFc-PE
T2 construct: whole, on cells; also called hCD47; CD47 tf CHO-S cells

human CD47 on cells [3] = target: T2, human CD47 on cells; test: flow cytometry, Raji cells, anti-hFc-PE
CD47-ECD-His [4] = target: T1, CD47-ECD-His; test: Octet, CD47-ECD-His loaded, SET2
human CD47 on cells [5] = target: T2, human CD47 on cells; test: flow cytometry blocking, FaDu cells + biotin-SIRPα Fc 1 µg/mL, avidin-PE
human CD47 on cells [6] = target: T2, human CD47 on cells; test: cell-based or functional assay
human CD47 on cells [7] = target: T2, human CD47 on cells; test: flow cytometry, human RBC (024), anti-hFc-PE
human CD47 on cells [8] = target: T2, human CD47 on cells; test: flow cytometry blocking, CD47 tf CHO-S cells + biotin-SIRPα Fc 1 µg/mL, avidin-PE
human CD47 on cells [9] = target: T2, human CD47 on cells; test: flow cytometry, Jurkat cells, anti-hFc-PE
human CD47 on cells [10] = target: T2, human CD47 on cells; test: cell-based or functional assay; remark: listed apart in the source
human CD47 on cells [11] = target: T2, human CD47 on cells; test: cell-based or functional assay; remark: listed apart in the source
[12] = target: T3, mouse CD47 on EMT-6 cells (mouse, UniProt Q61735 19-303); test: flow cytometry, EMT-6 cells, anti-hFc-PE
T3 construct: whole, on cells; also called cells expressing mouse CD47
T3 sequence (looked up): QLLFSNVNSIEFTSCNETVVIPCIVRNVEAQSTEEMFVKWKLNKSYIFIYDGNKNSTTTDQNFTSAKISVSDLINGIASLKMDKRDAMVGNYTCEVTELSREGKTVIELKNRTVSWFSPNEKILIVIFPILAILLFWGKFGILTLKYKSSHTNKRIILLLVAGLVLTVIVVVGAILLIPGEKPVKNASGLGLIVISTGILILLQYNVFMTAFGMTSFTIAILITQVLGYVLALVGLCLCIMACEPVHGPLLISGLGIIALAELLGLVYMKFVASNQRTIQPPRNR

human CD47 on cells [13] = target: T2, human CD47 on cells; test: flow cytometry on human platelets (FIG. 11D)
human CD47 on cells [14] = target: T2, human CD47 on cells; test: flow cytometry, Raji cells
human CD47 on cells [15] = target: T2, human CD47 on cells; test: flow cytometry on human platelets, donor 1

Fold (compared to SIRPa wt in IgG4) (CD47-ECD-His [1]): 29 | Kd (CD47-ECD-His [1]): 0.139 nM | koff (CD47-ECD-His [1]): 0.000144 s⁻¹ | kon (CD47-ECD-His [1]): 1.04e+06 M⁻¹ s⁻¹
B1: hSIRPa_mt9 (Fc fusion)
IgV domain - IgG4 hinge - Fc: EEELQVIQPDKSVSVAAGESAILTCTVTSLWPVGPIQWFRGAGPARELIYNQKGQNFPRVTTVSESTKRFNMDFSISISNITPADAGTYYCVKFRKGSPDTEFKSGAGTELSVRAKPS[human IgG4 Fc with S228P (EU numbers) not listed]
notes: also called hSIRPα-Fc-mt9; hSIRPaG4_mt9

EC50 values for phagocytosis of FaDu cells (human CD47 on cells [10]): 18.2 nM | IC50 (read off the curve) (human CD47 on cells [5]): ~50 nM | EC50 values for phagocytosis of Jurkat cells (human CD47 on cells [6]): 18.7 nM | Fold (compared to SIRPa wt in IgG4) (CD47-ECD-His [1]): 0.79 | Kd (CD47-ECD-His [1]): 5.11 nM | koff (CD47-ECD-His [1]): 0.0084 s⁻¹ | kon (CD47-ECD-His [1]): 1.65e+06 M⁻¹ s⁻¹ | EC50 values for phagocytosis of Raji cells (human CD47 on cells [11]): 15.9 nM | IC50 (read off the curve) (human CD47 on cells [8]): ~30 nM
B3: hSIRPα-Fc-mt6 (Fc fusion)
chain: B1 IgV domain - IgG4 hinge - Fc with T24H, W31I, G54N, Q55L, N56I, T67G, F70E
notes: also called hSIRPα-mt6

EC50 (read off the curve) (human CD47 on cells [3]): ~0.3 nM | EC50 values for phagocytosis of FaDu cells (human CD47 on cells [10]): 0.22 nM | IC50 (read off the curve) (human CD47 on cells [5]): ~0.5 nM | EC50 values for phagocytosis of Jurkat cells (human CD47 on cells [6]): 0.43 nM | Fold (compared to SIRPa wt in IgG4) (CD47-ECD-His [1]): 20.1 | Kd (CD47-ECD-His [1]): 0.201 nM | koff (CD47-ECD-His [1]): 0.000222 s⁻¹ | kon (CD47-ECD-His [1]): 1.11e+06 M⁻¹ s⁻¹ | EC50 values for phagocytosis of Raji cells (human CD47 on cells [11]): 0.08 nM | IC50 (read off the curve) (human CD47 on cells [8]): ~0.8 nM | EC50 (read off the curve) (human CD47 on cells [9]): ~0.4 nM
B4: hSIRPα-Fc-mt8 (Fc fusion)
chain: B1 IgV domain - IgG4 hinge - Fc with T24H, W31K, G54R, Q55D, N56T, F70E, M72R
notes: also called hSIRPα-mt8

EC50 (human CD47 on cells [13]): ~0.434 nM | EC50 (read off the curve) (human CD47 on cells [14]): ~0.2 nM
B6: hSIRPα-Fc-mt23 (Fc fusion)
chain: B1 IgV domain - IgG4 hinge - Fc with T24H, V27L, W31T, G54E, Q55G, N56P, F70G
notes: also called hSIRPα-mt23

EC50 (human CD47 on cells [15]): 0.247 nM
B7: hSIRPα-Fc-mt20 (Fc fusion)
chain: B1 IgV domain - IgG4 hinge - Fc with T24H, S29Q, W31I, G54H, Q55R, N56T, S66N, F70E
notes: also called hSIRPα-mt20

EC50 (read off the curve) (human CD47 on cells [3]): ~0.3 nM | EC50 values for phagocytosis of FaDu cells (human CD47 on cells [10]): 0.26 nM | binding result [12]: binds | Fold (compared to SIRPa wt in IgG4) (CD47-ECD-His [4]): 13.3 | Kd (CD47-ECD-His [4]): 0.387 nM | koff (CD47-ECD-His [4]): 0.000365 s⁻¹ | kon (CD47-ECD-His [4]): 942000 M⁻¹ s⁻¹ | IC50 (read off the curve) (human CD47 on cells [5]): ~0.5 nM | EC50 values for phagocytosis of Jurkat cells (human CD47 on cells [6]): 0.61 nM | EC50 values for phagocytosis of Raji cells (human CD47 on cells [11]): 0.09 nM | IC50 (read off the curve) (human CD47 on cells [8]): ~0.8 nM | EC50 (read off the curve) (human CD47 on cells [9]): ~0.4 nM
B8: hSIRPα-Fc-mt13 (Fc fusion)
chain: B1 IgV domain - IgG4 hinge - Fc with T24H, W31L, G54D, Q55F, N56L, F70E, M72R
notes: also called hSIRPα-mt13

The next lines start with the binder.

B2: hSIRPα-Fc-mt11 (Fc fusion)
chain: B1 IgV domain - IgG4 hinge - Fc with T24H, W31L, G54S, Q55K, N56V, F70R
notes: also called hSIRPα-mt11
EC50 (read off the curve) (human CD47 on cells [2]): ~0.2 nM | EC50 (read off the curve) (human CD47 on cells [3]): ~0.3 nM | Fold (compared to SIRPa wt in IgG4) (CD47-ECD-His [4]): 3.81 | Kd (CD47-ECD-His [4]): 1.35 nM | koff (CD47-ECD-His [4]): 0.000624 s⁻¹ | kon (CD47-ECD-His [4]): 463000 M⁻¹ s⁻¹ | IC50 (read off the curve) (human CD47 on cells [5]): ~0.5 nM | EC50 values for phagocytosis of Jurkat cells (human CD47 on cells [6]): 0.24 nM | EC50 (read off the curve) (human CD47 on cells [7]): ~0.2 nM | IC50 (read off the curve) (human CD47 on cells [8]): ~0.8 nM | EC50 (read off the curve) (human CD47 on cells [9]): ~0.4 nM

B5: hSIRPα-Fc-mt4 (Fc fusion)
chain: B1 IgV domain - IgG4 hinge - Fc with T24R, G54A, Q55F, N56I, F70G
notes: also called hSIRPα-mt4
EC50 (read off the curve) (human CD47 on cells [2]): ~0.2 nM | EC50 (read off the curve) (human CD47 on cells [3]): ~0.3 nM | EC50 values for phagocytosis of FaDu cells (human CD47 on cells [10]): 0.09 nM | binding result [12]: binds | IC50 (read off the curve) (human CD47 on cells [5]): ~0.5 nM | EC50 values for phagocytosis of Jurkat cells (human CD47 on cells [6]): 0.28 nM | Fold (compared to SIRPa wt in IgG4) (CD47-ECD-His [1]): 48.2 | Kd (CD47-ECD-His [1]): 0.0836 nM | koff (CD47-ECD-His [1]): 9.95e-05 s⁻¹ | kon (CD47-ECD-His [1]): 1.19e+06 M⁻¹ s⁻¹ | EC50 values for phagocytosis of Raji cells (human CD47 on cells [11]): 0.06 nM | EC50 (read off the curve) (human CD47 on cells [7]): ~0.3 nM | IC50 (read off the curve) (human CD47 on cells [8]): ~0.5 nM | EC50 (read off the curve) (human CD47 on cells [9]): ~0.4 nM

B9: hSIRPα-Fc-mt14 (Fc fusion)
chain: B1 IgV domain - IgG4 hinge - Fc with T24H, W31A, G54L, Q55D, N56S, F70E, N71S
notes: also called hSIRPα-mt14
Fold (compared to SIRPa wt in IgG4) (CD47-ECD-His [4]): 1.13 | Kd (CD47-ECD-His [4]): 4.57 nM | koff (CD47-ECD-His [4]): 0.00545 s⁻¹ | kon (CD47-ECD-His [4]): 1.19e+06 M⁻¹ s⁻¹ | IC50 (read off the curve) (human CD47 on cells [5]): ~20 nM | EC50 values for phagocytosis of Jurkat cells (human CD47 on cells [6]): 22.1 nM | IC50 (read off the curve) (human CD47 on cells [8]): ~10 nM

B10: hSIRPα-Fc-mt12 (Fc fusion)
chain: B1 IgV domain - IgG4 hinge - Fc with T24H, W31Y, Q55R, N56R, F70A
notes: also called hSIRPα-mt12
EC50 (read off the curve) (human CD47 on cells [3]): ~0.3 nM | Fold (compared to SIRPa wt in IgG4) (CD47-ECD-His [4]): 7.74 | Kd (CD47-ECD-His [4]): 0.665 nM | koff (CD47-ECD-His [4]): 0.00062 s⁻¹ | kon (CD47-ECD-His [4]): 932000 M⁻¹ s⁻¹ | IC50 (read off the curve) (human CD47 on cells [5]): ~0.5 nM | EC50 values for phagocytosis of Jurkat cells (human CD47 on cells [6]): 0.48 nM | IC50 (read off the curve) (human CD47 on cells [8]): ~0.8 nM | EC50 (read off the curve) (human CD47 on cells [9]): ~0.4 nM

Changes are numbered by the printed parent chain. Each block holds one binder with its values, some of them ahead of it.
